Most values come without repeats; read them as rough.
How the values were obtained:
[1] = test system: CHO-K1; assay: micronucleus frequency (% of nucleated events); higher = more micronuclei (genotoxic)
[2] = test system: CHO-K1; assay: relative survival (nuclei to bead ratio vs DMSO control) (% of vehicle control); higher = more surviving cells
[3] = test system: CHO-K1; assay: hypodiploid nuclei frequency (% of nucleated events); higher = more hypodiploid events (aneugenic)
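For hypodiploid nuclei frequency (% of nucleated events) in this document: hypodiploid nuclei gated on a flow cytometer with 488 nm excitation after SYTOX Green staining, cultures at 37 °C, positive controls vinblastine without S9 and cyclophosphamide with S9.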
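For micronucleus frequency (% of nucleated events) in this document: cells lysed with nuclei stained by SYTOX Green, then micronucleus-gated events counted against nucleated events by flow cytometry with 488 nm excitation.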
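For relative survival (nuclei to bead ratio vs DMSO control) in this document: Lysed-cell nuclei stained with SYTOX Green and counted against counting beads by flow cytometry at 488 nm excitation, with vinblastine (no S9) and cyclophosphamide (plus S9) as positive controls.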

COC(=O)c1ccc(C(=O)OC)cc1 [Dimethyl terephthalate]
Conditions | hypodiploid nuclei frequency, [3] [%] | micronucleus frequency, [1] [%] | relative survival, [2]
concentration: 4.5 (µM), S9 metabolic activation: with S9, exposure time: 3-4 hours | 0.28 | 1.5 | 95.6
concentration: 4.5 (µM), S9 metabolic activation: without S9, exposure time: 24 hours | 2.16 | 1.68 | 95.5
concentration: 5.63 (µM), S9 metabolic activation: with S9, exposure time: 3-4 hours | 0.48 | 2.06 | 100
concentration: 5.63 (µM), S9 metabolic activation: without S9, exposure time: 24 hours | 1.28 | 1.74 | 101
concentration: 7.04 (µM), S9 metabolic activation: with S9, exposure time: 3-4 hours | 0.48 | 1.7 | 95.4
concentration: 7.04 (µM), S9 metabolic activation: without S9, exposure time: 24 hours | 1.4 | 1.94 | 109
concentration: 8.8 (µM), S9 metabolic activation: with S9, exposure time: 3-4 hours | 0.36 | 3.06 | 96.7
concentration: 8.8 (µM), S9 metabolic activation: without S9, exposure time: 24 hours | 1.66 | 1.62 | 109
concentration: 11 (µM), S9 metabolic activation: with S9, exposure time: 3-4 hours | 0.38 | 1.96 | 111
concentration: 11 (µM), S9 metabolic activation: without S9, exposure time: 24 hours | 1.22 | 1.66 | 111
concentration: 13.7 (µM), S9 metabolic activation: with S9, exposure time: 3-4 hours | 0.28 | 1.82 | 94.1
concentration: 13.7 (µM), S9 metabolic activation: without S9, exposure time: 24 hours | 1.5 | 1.42 | 88.8
concentration: 17.2 (µM), S9 metabolic activation: with S9, exposure time: 3-4 hours | 0.22 | 1.8 | 88.3
concentration: 17.2 (µM), S9 metabolic activation: without S9, exposure time: 24 hours | 1.14 | 2.04 | 105
concentration: 21.5 (µM), S9 metabolic activation: with S9, exposure time: 3-4 hours | 0.34 | 1.68 | 99
concentration: 21.5 (µM), S9 metabolic activation: without S9, exposure time: 24 hours | 1.34 | 1.86 | 105
concentration: 26.8 (µM), S9 metabolic activation: with S9, exposure time: 3-4 hours | 0.3 | 1.46 | 99
concentration: 26.8 (µM), S9 metabolic activation: without S9, exposure time: 24 hours | 9.24 | 1.9 | 78.3
concentration: 33.6 (µM), S9 metabolic activation: with S9, exposure time: 3-4 hours | 0.22 | 1.76 | 83.6
concentration: 33.6 (µM), S9 metabolic activation: without S9, exposure time: 24 hours | 5.42 | 2.18 | 75.1
concentration: 41.9 (µM), S9 metabolic activation: with S9, exposure time: 3-4 hours | 0.46 | 1.84 | 68.9
concentration: 41.9 (µM), S9 metabolic activation: without S9, exposure time: 24 hours | 3.32 | 1.86 | 83.4
concentration: 52.4 (µM), S9 metabolic activation: with S9, exposure time: 3-4 hours | 0.18 | 1.6 | 97.8
concentration: 52.4 (µM), S9 metabolic activation: without S9, exposure time: 24 hours | 2.24 | 1.8 | 75.6
concentration: 65.5 (µM), S9 metabolic activation: with S9, exposure time: 3-4 hours | 0.22 | 1.7 | 86.5
concentration: 65.5 (µM), S9 metabolic activation: without S9, exposure time: 24 hours | 1.6 | 1.56 | 89.2
concentration: 81.9 (µM), S9 metabolic activation: with S9, exposure time: 3-4 hours | 0.32 | 1.42 | 81.2
concentration: 81.9 (µM), S9 metabolic activation: without S9, exposure time: 24 hours | 1.64 | 1.84 | 89.2
concentration: 102 (µM), S9 metabolic activation: with S9, exposure time: 3-4 hours | 0.28 | 1.78 | 83.8
concentration: 102 (µM), S9 metabolic activation: without S9, exposure time: 24 hours | 2 | 1.84 | 104
concentration: 128 (µM), S9 metabolic activation: with S9, exposure time: 3-4 hours | 0.44 | 1.9 | 85.5
concentration: 128 (µM), S9 metabolic activation: without S9, exposure time: 24 hours | 1.74 | 2.26 | 98.5
concentration: 160 (µM), S9 metabolic activation: with S9, exposure time: 3-4 hours | 0.28 | 1.68 | 80.2
concentration: 160 (µM), S9 metabolic activation: without S9, exposure time: 24 hours | 1.92 | 2.06 | 104
concentration: 200 (µM), S9 metabolic activation: with S9, exposure time: 3-4 hours | 0.16 | 2.06 | 84.1
concentration: 200 (µM), S9 metabolic activation: without S9, exposure time: 24 hours | 1.74 | 2.76 | 84.2

CCC(C)c1cc([N+](=O)[O-])cc([N+](=O)[O-])c1O (centres undefined) [Dinoseb]
Conditions | hypodiploid nuclei frequency, [3] [%] | micronucleus frequency, [1] [%] | relative survival, [2]
concentration: 4.5 (µM), S9 metabolic activation: with S9, exposure time: 3-4 hours | 0.14 | 1.48 | 102
concentration: 4.5 (µM), S9 metabolic activation: without S9, exposure time: 24 hours | 0.68 | 1.56 | 112
concentration: 5.63 (µM), S9 metabolic activation: with S9, exposure time: 3-4 hours | 0.36 | 1.72 | 110
concentration: 5.63 (µM), S9 metabolic activation: without S9, exposure time: 24 hours | 0.68 | 2.12 | 109
concentration: 7.04 (µM), S9 metabolic activation: with S9, exposure time: 3-4 hours | 0.38 | 1.78 | 115
concentration: 7.04 (µM), S9 metabolic activation: without S9, exposure time: 24 hours | 0.7 | 1.62 | 111
concentration: 8.8 (µM), S9 metabolic activation: with S9, exposure time: 3-4 hours | 0.32 | 1.36 | 108
concentration: 8.8 (µM), S9 metabolic activation: without S9, exposure time: 24 hours | 0.7 | 2.38 | 101
concentration: 11 (µM), S9 metabolic activation: with S9, exposure time: 3-4 hours | 0.3 | 1.6 | 115
concentration: 11 (µM), S9 metabolic activation: without S9, exposure time: 24 hours | 0.86 | 1.9 | 106
concentration: 13.7 (µM), S9 metabolic activation: with S9, exposure time: 3-4 hours | 0.2 | 1.36 | 111
concentration: 13.7 (µM), S9 metabolic activation: without S9, exposure time: 24 hours | 0.96 | 1.6 | 102
concentration: 17.2 (µM), S9 metabolic activation: with S9, exposure time: 3-4 hours | 0.2 | 1.26 | 121
concentration: 17.2 (µM), S9 metabolic activation: without S9, exposure time: 24 hours | 0.8 | 1.84 | 101
concentration: 21.5 (µM), S9 metabolic activation: with S9, exposure time: 3-4 hours | 0.28 | 1.26 | 99
concentration: 21.5 (µM), S9 metabolic activation: without S9, exposure time: 24 hours | 1.04 | 2.04 | 101
concentration: 26.8 (µM), S9 metabolic activation: with S9, exposure time: 3-4 hours | 0.28 | 0.94 | 85.6
concentration: 26.8 (µM), S9 metabolic activation: without S9, exposure time: 24 hours | 1.44 | 1.78 | 94.1
concentration: 33.6 (µM), S9 metabolic activation: with S9, exposure time: 3-4 hours | 0.18 | 0.88 | 97
concentration: 33.6 (µM), S9 metabolic activation: without S9, exposure time: 24 hours | 2.38 | 1.92 | 81.6
concentration: 41.9 (µM), S9 metabolic activation: with S9, exposure time: 3-4 hours | 0.2 | 0.88 | 91.7
concentration: 41.9 (µM), S9 metabolic activation: without S9, exposure time: 24 hours | 1.76 | 1.74 | 53.2
concentration: 52.4 (µM), S9 metabolic activation: with S9, exposure time: 3-4 hours | 0.18 | 1.22 | 83.5
concentration: 52.4 (µM), S9 metabolic activation: without S9, exposure time: 24 hours | 1.54 | 2.98 | 55
concentration: 65.5 (µM), S9 metabolic activation: with S9, exposure time: 3-4 hours | 0.22 | 0.96 | 92
concentration: 65.5 (µM), S9 metabolic activation: without S9, exposure time: 24 hours | 1.66 | 3.16 | 59
concentration: 81.9 (µM), S9 metabolic activation: with S9, exposure time: 3-4 hours | 0.24 | 1.68 | 93.3
concentration: 81.9 (µM), S9 metabolic activation: without S9, exposure time: 24 hours | 1.26 | 2.86 | 53.1
concentration: 102 (µM), S9 metabolic activation: with S9, exposure time: 3-4 hours | 0.22 | 1.52 | 98.8
concentration: 102 (µM), S9 metabolic activation: without S9, exposure time: 24 hours | 1.28 | 2.96 | 47.4
concentration: 128 (µM), S9 metabolic activation: with S9, exposure time: 3-4 hours | 0.12 | 1.06 | 92
concentration: 128 (µM), S9 metabolic activation: without S9, exposure time: 24 hours | – | – | 39.7
concentration: 160 (µM), S9 metabolic activation: with S9, exposure time: 3-4 hours | 0.24 | 1.24 | 92.9
concentration: 160 (µM), S9 metabolic activation: without S9, exposure time: 24 hours | 0.9 | 2.14 | 46
concentration: 200 (µM), S9 metabolic activation: with S9, exposure time: 3-4 hours | 0.2 | 1.08 | 72.6
concentration: 200 (µM), S9 metabolic activation: without S9, exposure time: 24 hours | 0.63 | 2.6 | 41.5
